We go through 43 compounds from PMC11995724, “Antibiotic target discovery by integrated phenotypic and activity-based profiling of electrophilic fragments” (Cell chemical biology, 2025).

SMILES strings stand for the structures. Screen size: about 3,200 compounds; about 75 (2%) showed an effect of 50% or more. The list shows a part of the results.

This assay relates to T1, S. aureus MSSA476.
T1 construct: MSSA476
More on the design: species or system S. aureus MSSA476 (TSB) or V. cholerae SAD30 (LB); 384-well bacterial growth screen at 25 uM, OD600 relative to DMSO control. The conditions noted are these: relative growth, OD600, TSB; 25 µM; inhibitor.
Turning to `COc1cccc(NC(=O)C(C#N)=Cc2ccc(C#N)cc2)c1` [8-G18, 2-cyano-3-(4-cyanophenyl)-N-(3-methoxyphenyl)prop-2-enamide], the “% of control remaining” value came out at 118.174%.

With `C=CC(=O)Nc1ccc(C(=O)N2CCC(C(C)C)CC2)cc1` [3-B15, N-{4-[4-(propan-2-yl)piperidine-1-carbonyl]phenyl}prop-2-enamide], the “% of control remaining” value came out at 142.447%.

With `N#CC(=Cc1cccc2ccccc12)C(=O)NC1CC1` [9-O03, 2-cyano-N-cyclopropyl-3-(naphthalen-1-yl)prop-2-enamide], the “% of control remaining” value is recorded as 109.064%.

For `C=CC(=O)N[C@@H](C)c1ccccc1OC` [1-K06, N-[(1S)-1-(2-methoxyphenyl)ethyl]prop-2-enamide], the “% of control remaining” value is on record as 106.549%.

For the compound `Cc1cn2c(C=C(C#N)C(=O)Nc3c(C)cccc3C)c(C)nc2s1` [9-N19, 2-cyano-3-{2,6-dimethylimidazo[2,1-b][1,3]thiazol-5-yl}-N-(2,6-dimethylphenyl)prop-2-enamide], the “% of control remaining” value stood at 91.985%.

In the case of `CC(C)(C)c1ccc(C=C(C#N)C(=O)Nc2ccc(C(=O)O)cc2)cc1` [9-I21, 4-[3-(4-tert-butylphenyl)-2-cyanoprop-2-enamido]benzoic acid], the “% of control remaining” value was 71.6105%.

As to `CC1=C(C#N)C(=O)N(C)C(=O)C1=Cc1ccc(-c2ccc(F)cc2)o1` [9-I18, 5-{[5-(4-fluorophenyl)furan-2-yl]methylidene}-1,4-dimethyl-2,6-dioxo-1,2,5,6-tetrahydropyridine-3-carbonitrile], the “% of control remaining” value is given as 83.2959%.

For the compound `CC(Cl)C(=O)N1CCCC1Cc1cccc(F)c1F` (stereo not shown) [7-E19, 2-chloro-1-{2-[(2,3-difluorophenyl)methyl]pyrrolidin-1-yl}propan-1-one], the “% of control remaining” value worked out at 108.948%.

As for `CC(Cl)C(=O)N[C@H]1CCO[C@@H]1c1nccn1-c1ccccc1` (mixture of isomers) [7-A12, rac-2-chloro-N-[(2R,3R)-2-(1-phenyl-1H-imidazol-2-yl)oxolan-3-yl]propanamide], the “% of control remaining” value was found to be 87.5981%.

Regarding `C=CC(=O)Nc1ccccc1CCC(N)=O` [1-A18, N-[2-(2-carbamoylethyl)phenyl]prop-2-enamide], the “% of control remaining” value worked out at 117.099%.

As for `CC(Cl)C(=O)N1CCN(C(=O)CN2C(=O)CCC2=O)CC1` (stereo not shown) [6-B11, 1-{2-[4-(2-chloropropanoyl)piperazin-1-yl]-2-oxoethyl}pyrrolidine-2,5-dione], the “% of control remaining” value was 89.8049%.

Regarding `CCOc1ccccc1NC(=O)C(C#N)=Cc1c(F)cccc1F` [8-G21, 2-cyano-3-(2,6-difluorophenyl)-N-(2-ethoxyphenyl)prop-2-enamide], the “% of control remaining” value is listed as 69.3776%.

Take `COCC(C)NC(=O)C(C#N)=Cc1cccc(F)c1F` (stereo not shown) [9-F09, 2-cyano-3-(2,3-difluorophenyl)-N-(1-methoxypropan-2-yl)prop-2-enamide]: the “% of control remaining” value is 101.873%.

As to `Cc1cc(C(C)N(Cc2c(C)noc2C)C(=O)CCl)c(C)o1` (stereo not shown) [5-E16, 2-chloro-N-[(3,5-dimethyl-1,2-oxazol-4-yl)methyl]-N-[1-(2,5-dimethylfuran-3-yl)ethyl]acetamide], the “% of control remaining” value came out at 102.368%.

For `CC(Cl)C(=O)N1CCC(c2nc(C3CC3)no2)(C(F)(F)F)C1` (stereo not shown) [7-K12, 2-chloro-1-[3-(3-cyclopropyl-1,2,4-oxadiazol-5-yl)-3-(trifluoromethyl)pyrrolidin-1-yl]propan-1-one], the “% of control remaining” value was determined as 83.8305%.

Regarding `CNC(=O)c1ccc(O)c(NC(=O)CCl)c1` [5-C10, 3-(2-chloroacetamido)-4-hydroxy-N-methylbenzamide], the “% of control remaining” value was found to be 124.59%.

Consider `C=CC(=O)N1CCC(C(=O)NC2CCc3ncnn3C2)CC1` (stereo not shown) [2-P20, 1-(prop-2-enoyl)-N-{5H,6H,7H,8H-[1,2,4]triazolo[1,5-a]pyridin-6-yl}piperidine-4-carboxamide], for which the “% of control remaining” value was 98.1723%.

For `Cc1ccc(C)c(N2C(=O)C=CC2=O)c1` [10-F13, 1-(2,5-dimethylphenyl)-2,5-dihydro-1H-pyrrole-2,5-dione], the “% of control remaining” value is recorded as 112.813%.

Take `CC(C#N)CSc1ccccc1NC(=O)CCl` (stereo not shown) [6-K16, 2-chloro-N-{2-[(2-cyano-2-methylethyl)sulfanyl]phenyl}acetamide]: the “% of control remaining” value is listed as 101.756%.

Turning to `COc1ccc(Cl)cc1C(O)CNC(=O)CCl` (stereo not shown) [7-N06, 2-chloro-N-[2-(5-chloro-2-methoxyphenyl)-2-hydroxyethyl]acetamide], the “% of control remaining” value is listed as 93.5636%.

Take `N#CC(=Cc1ccc(Oc2cnccn2)cc1)C(=O)NC1CCCC1` [9-F20, 2-cyano-N-cyclopentyl-3-[4-(pyrazin-2-yloxy)phenyl]prop-2-enamide]: the “% of control remaining” value is 95.2809%.

In the case of `CC(Cl)C(=O)NCc1nnnn1CC1CC1` (stereo not shown) [6-F14, 2-chloro-N-{[1-(cyclopropylmethyl)-1H-1,2,3,4-tetrazol-5-yl]methyl}propanamide], the “% of control remaining” value was 96.9756%.

For `C=CC(=O)NC1CC2CCC(C1)S2` (stereo not shown) [1-B06, N-{8-thiabicyclo[3.2.1]octan-3-yl}prop-2-enamide], the “% of control remaining” value is listed as 97.0549%.

As for `C=CC(=O)NCc1nc(OC)cc(OC)n1` [2-M20, N-[(4,6-dimethoxypyrimidin-2-yl)methyl]prop-2-enamide], the “% of control remaining” value is given as 103.046%.

As for `COc1cc(OC)c(NC(=O)CCl)cc1Cl` [4-G11, 2-chloro-N-(5-chloro-2,4-dimethoxyphenyl)acetamide], the “% of control remaining” value turned out to be 97.1891%.

With `C=CC(=O)NCCN1CCn2nccc2C1` [3-F21, N-(2-{4H,5H,6H,7H-pyrazolo[1,5-a]pyrazin-5-yl}ethyl)prop-2-enamide], the “% of control remaining” value amounted to 140.357%.

On to `CC(Cl)C(=O)N1CCN(C)C(c2nc(C3CC3)no2)C1` (stereo not shown) [7-I08, 2-chloro-1-[3-(3-cyclopropyl-1,2,4-oxadiazol-5-yl)-4-methylpiperazin-1-yl]propan-1-one], for which the “% of control remaining” value is recorded as 77.865%.

For the compound `Cc1ccc(C)c(-c2cc(NC(=O)CCl)n(-c3ccccc3)n2)c1` [4-M14, 2-chloro-N-[3-(2,5-dimethylphenyl)-1-phenyl-1H-pyrazol-5-yl]acetamide], the “% of control remaining” value amounted to 83.8495%.

For `CCC(c1cc(Cl)cc(Cl)c1)N(C)C(=O)CCl` (stereo not shown) [7-L10, 2-chloro-N-[1-(3,5-dichlorophenyl)propyl]-N-methylacetamide], the “% of control remaining” value is on record as 75.0392%.

`Cc1cc(C)c(NC(=O)C(C#N)=Cc2ccccc2)c(C)c1` [8-E19, 2-cyano-3-phenyl-N-(2,4,6-trimethylphenyl)prop-2-enamide]: the “% of control remaining” value came out at 71.3693%.

For `CCc1nc2c(s1)C(N(C)C(=O)C(C)Cl)CCC2` (stereo not shown) [7-N17, 2-chloro-N-(2-ethyl-4,5,6,7-tetrahydro-1,3-benzothiazol-7-yl)-N-methylpropanamide], the “% of control remaining” value worked out at 126.845%.

For the compound `N#CC(=Cc1ccc([N+](=O)[O-])cc1)C(=O)Nc1ccc(Cl)cc1` [8-O11, N-(4-chlorophenyl)-2-cyano-3-(4-nitrophenyl)prop-2-enamide], the “% of control remaining” value amounted to 100.581%.

Regarding `O=C(CCl)NCc1cn[nH]c1C(F)F` [7-D05, 2-chloro-N-{[5-(difluoromethyl)-1H-pyrazol-4-yl]methyl}acetamide], the “% of control remaining” value is reported as 102.041%.

With `CC(Cl)C(=O)N1CCN(Cc2cnn(-c3ccccc3)c2)CC1` (stereo not shown) [7-F13, 2-chloro-1-{4-[(1-phenyl-1H-pyrazol-4-yl)methyl]piperazin-1-yl}propan-1-one], the “% of control remaining” value is on record as 98.2732%.

With `C=CC(=O)N(C)CC(=O)NC1CCN(C(=O)c2ccc(C)cc2)CC1` [2-N14, N-methyl-N-({[1-(4-methylbenzoyl)piperidin-4-yl]carbamoyl}methyl)prop-2-enamide], the “% of control remaining” value stood at 106.876%.

As to `CCC(NC(=O)CCl)c1cccc(OC)n1` (stereo not shown) [7-D08, 2-chloro-N-[1-(6-methoxypyridin-2-yl)propyl]acetamide], the “% of control remaining” value is recorded as 112.088%.

On to `Cc1ccc(NC(=O)CCl)cc1S(=O)(=O)N1CCOCC1` [4-L07, 2-chloro-N-[4-methyl-3-(morpholine-4-sulfonyl)phenyl]acetamide], for which the “% of control remaining” value worked out at 107.861%.

Take `O=CN1CCN(C(=O)CCl)CC1` [6-M17, 4-(2-chloroacetyl)piperazine-1-carbaldehyde]: the “% of control remaining” value is recorded as 105.512%.

As to `CC(=O)NCCc1ccc(C(=O)CCl)cc1` [10-N03, N-{2-[4-(2-chloroacetyl)phenyl]ethyl}acetamide], the “% of control remaining” value came to 113.125%.

`C=CC(=O)Nc1ncc(-c2cccc(C)c2)s1` [1-P14, N-[5-(3-methylphenyl)-1,3-thiazol-2-yl]prop-2-enamide]: the “% of control remaining” value is reported as 101.275%.

Regarding `COC(=O)c1sccc1N1C(=O)C=CC1=O` [10-A07, methyl 3-(2,5-dioxo-2,5-dihydro-1H-pyrrol-1-yl)thiophene-2-carboxylate], the “% of control remaining” value is recorded as 125.625%.

Regarding `C=CC(=O)N(CC)CC(=O)N1CCC(c2nncn2C)CC1` [2-L10, N-ethyl-N-{2-[4-(4-methyl-4H-1,2,4-triazol-3-yl)piperidin-1-yl]-2-oxoethyl}prop-2-enamide], the “% of control remaining” value came to 78.6771%.

With `C=CC(=O)N1CCC(C(=O)NCCn2c(=O)[nH]c3ccccc32)CC1` [3-J03, N-[2-(2-oxo-2,3-dihydro-1H-1,3-benzodiazol-1-yl)ethyl]-1-(prop-2-enoyl)piperidine-4-carboxamide], the “% of control remaining” value stood at 114.584%.
